The structures appear in SMILES notation. Hit rate of the full screen: of about 52,000 compounds, about 1,700 (3.3%) were called active. Rule as the data show it: active = survival mostly below about 52% (no sharp cut-off); inactive = mostly above about 56%. The list shows a part of the results.

This is an account of results in PubChem BioAssay AID463173 (ICCB-Longwood Screening Facility, Harvard Medical School, 2010).

The test relates to Wild type. Briefly: growth inhibition of S. aureus wild type versus tarO mutant, primary screen, teichoic acid synthesis inhibitors, RN4220, OD600 (AID 463173). The following applies: S. aureus RN4220 wild type/DeltatarO growth, OD600, 18 h, active compounds read low, screened at 18.75 µg/mL (by protocol).
For `COc1ccc(OC)c(Nc2nc3ccccc3n3c(C)nnc23)c1`, the survival is inactive: 83%.

On to `CCC(C(=O)O)C(C)CC(=O)Nc1ccccc1Cl` (stereo not given), for which the survival is inactive: 110%. As for `COc1ccc(COC(=O)c2[nH]c3c(c2C)C(=O)CC(c2ccc(OC)c(OC)c2)C3)cc1` (stereo not given), the figure is inactive: 92%. Take `C#CC(C)(CC)NC(=O)Cn1nnc(-c2ccc(OCc3ccccc3F)cc2)n1` (stereo not given): the survival is inactive: 100%. `COc1ccc(-c2nc(CN3CCC(C(=O)NCCCN4CCN(c5ccccc5F)CC4)CC3)c(C)o2)cc1OC`: the survival was inactive: 91%. For `O=C(Nc1cc(-c2nc3cc(Cl)ccc3o2)ccc1Cl)c1cccs1` the value was inactive: 79%; for `CC1CCCC(C)N1C(=O)Cn1c(SCC(=O)NCc2ccco2)nc2ccccc21` (stereo not given), inactive: 102%. For `Cc1cccc(-c2nc3ccccc3o2)c1` the value was inactive: 119%.

As to `COCCCNC(=O)c1cc2n(n1)CCCN(Cc1ccc(C)cc1)C2=O`, the survival is inactive: 91%. For `O=C(CSc1nnc(CNC(=O)c2c(F)cccc2Cl)o1)Nc1ccccc1F` the value was inactive: 92%; for `O=C1NCCCC1C(=O)Nc1ccncc1` (stereo not given), inactive: 100%; for `O=C(N=C1SCC(=O)N1c1ccccc1)c1ccco1`, inactive: 105%. As for `CCC(=O)N1c2ccccc2CC1C(=O)NCc1ccccc1C` (stereo not given), the figure is inactive: 140%; as for `COc1ccc(OC)c(NC(=O)c2cc3c(s2)-c2ccccc2SC3)c1`, inactive: 65%; as for `COc1ccccc1-c1c(C)nn2c(N3CCN(c4cccc(Cl)c4)CC3)cc(C)nc12`, inactive: 49%.

Consider `Cc1c(NS(=O)(=O)c2cccc(C(=O)O)c2)c(=O)n(-c2ccccc2)n1C`, for which the survival is inactive: 80%. As for `CC1=C(C(=O)OCc2ccc(C)cc2)C(c2c(Cl)cccc2Cl)CC(=O)N1` (stereo not given), the figure is inactive: 85%; as for `CS(=O)(=O)c1ncc(N(Cc2ccco2)Cc2ccco2)c(C(=O)Nc2ccccc2Br)n1`, inactive: 101%; as for `Cc1ccc(-n2ncc(C(=O)NC3CCCC3)c2C2CCN(C(=O)OC(C)(C)C)CC2)c(C)c1`, inactive: 79%. As to `CNc1nc(Oc2ccc(=O)n(C)n2)nc(N2CCOCC2)n1`, the survival is inactive: 72%. Regarding `COc1cccc(Cn2nnc3c(=O)[nH]c(C4CCCN(C(=O)c5ccc(C)cc5)C4)nc32)c1` (stereo not given), the survival was inactive: 109%. As for `Cc1ccc(C)c(NS(=O)(=O)c2ccc3c4c(cccc24)C(=O)N3)c1`, the figure is inactive: 83%; as for `COc1ccc(S(=O)(=O)N2CCCC(C(=O)N(Cc3cccs3)C3CC3)C2)cc1Cl` (stereo not given), inactive: 100%; as for `CCn1nnnc1SCC(=O)NC1CCCC1`, inactive: 99%.

For the compound `Cc1ccc(-c2cc(-c3ccccc3)nc(N3CCCC3)n2)cc1`, the survival was inactive: 121%.

With `Cn1c(SCC(=O)N2CCCc3ccccc32)ncc(C(=O)Nc2ccc(Cl)cc2)c1=O`, the survival is inactive: 110%. Take `CCOc1ccccc1-c1nc(=S)[nH][nH]1`: the survival is inactive: 110%. As for `COc1cccc(CN(Cc2ccco2)c2cnc(S(C)(=O)=O)nc2C(=O)Nc2cccc(Cl)c2C)c1`, the figure is inactive: 86%; as for `Cc1cc2cc(CN(Cc3ccco3)C(c3nnnn3C3CCCC3)C(C)C)c(=O)[nH]c2cc1C` (stereo not given), inactive: 120%; as for `CCc1nc2nc(C)cc(Nc3ccc(OC)cc3)n2n1`, inactive: 69%. As for `CN(C1CCCCC1)S(=O)(=O)c1ccc2c(c1)c(=O)c(C(=O)NCCc1ccc(Cl)cc1)cn2C`, the figure is inactive: 77%; as for `CSCCC(NS(=O)(=O)c1ccc2c(c1)oc(=O)n2C)C(=O)NCCc1ccc(C)cc1` (stereo not given), inactive: 73%. As for `Cc1ccc(-c2nnc(Nc3cccc(Cl)c3)c3ccccc23)cc1S(=O)(=O)NCC1CCCO1` (stereo not given), the survival was inactive: 131%. Consider `CCS(=O)(=O)N1CCC(C(=O)NCCC(C)C)CC1`, for which the survival was inactive: 72%. As for `CC(C)NC(=O)Cn1nnc(-c2ccc(Cl)cc2)n1`, the figure is inactive: 95%; as for `COc1cccc(OCCCCn2c(-c3ccc(Cl)cc3)nc3ccccc3c2=O)c1`, inactive: 30%. `O=S(=O)(NCCSc1nnnn1-c1ccccc1)c1ccc(F)cc1`: the survival is inactive: 76%.

With `Cc1ccc(-c2onc(C)c2C)cc1S(=O)(=O)NCc1ccco1`, the survival was inactive: 112%.

With `Cc1ccc(S(=O)(=O)c2cnc(SCC(=O)Nc3ccc4c(c3)OCCO4)[nH]c2=O)cc1`, the survival was inactive: 86%.

As for `CCOc1cc(C(=O)Nc2cccc(-c3nc4ccccc4o3)c2)cc(OCC)c1OCC`, the survival is inactive: 79%. As for `CC(=O)Nc1ccc(S(=O)(=O)NC2(C(F)(F)F)NC(=O)N(c3ccc(C)cc3)C2=O)cc1` (stereo not given), the figure is inactive: 74%; as for `O=C(c1cccc([N+](=O)[O-])c1)N1c2ncnn2C2(CCCCC2)[C@@H]2CCCC[C@@H]21`, inactive: 80%; as for `COC(=O)c1ccccc1NC(=O)Cn1cc(S(=O)(=O)Cc2ccccc2F)c2ccccc21`, inactive: 110%.

With `CCOC(=O)c1c(C)oc2nc(C)nc(NCc3ccccc3Cl)c12`, the survival was inactive: 73%. As for `CCCCc1ccc(-n2nc3cc(C)c(NC(=O)Cc4ccccc4)cc3n2)cc1`, the figure is inactive: 98%. With `Cc1ccc2cccc(NC(=O)COc3ccccc3[N+](=O)[O-])c2n1`, the survival is inactive: 99%.

With `Cc1cccc(OCc2ccc(-c3nc(C#N)c(NCCN(C)C)o3)o2)c1`, the survival is inactive: 120%. As for `Cc1ccc(S(=O)(=O)c2cnc(SCC(=O)Nc3cc(C)cc(C)c3)nc2N)cc1`, the figure is inactive: 99%; as for `O=C(NCCNCc1ccccc1)c1ccco1`, inactive: 115%.

For `Cc1cc(Nc2ccc(C)c(C)c2)n2cnnc2n1`, the survival is inactive: 96%.

As for `COc1ccc2c(c1)c1c(c(=O)n(-c3ccccc3C)c(=O)n1CC(=O)NCc1ccc(C)cc1)n2C`, the survival was inactive: 84%. For `CCCN(CCC)C(=O)CSc1nnc2cc(C)c3cc(C)cc(C)c3n12` the value was inactive: 79%; for `CCN(CC)c1ccc(NC(=O)CSc2nnc(C)c(=O)[nH]2)cc1`, inactive: 90%. With `CCOC(=O)c1c(NC(=O)COc2ccccc2F)sc2c1CCCC2`, the survival was inactive: 76%.

Take `O=C(CN1CCCCCCC1)Nc1ccc2c(c1)OCO2`: the survival was inactive: 118%. As to `O=C(Nc1cc(Cl)cc(Cl)c1)c1ccc(F)c(S(=O)(=O)NC2CCCC2)c1`, the survival is inactive: 80%. As for `Cc1cccc(CN2C(=O)c3ccccc3Sc3ccc(C(=O)N4CCCC4)cc32)c1`, the figure is inactive: 88%.

Consider `COC(=O)c1c(-c2cccs2)csc1NC(=O)c1ccc(Cl)cc1`, for which the survival is inactive: 73%. In the case of `COCCN1C(=O)c2[nH]nc(-c3ccccc3O)c2C1c1ccc(OCc2ccccc2)c(OC)c1` (stereo not given), the survival is inactive: 43%. Regarding `CCc1ccc(N(CC)C(=O)c2ccc3c(=O)n4c(nc3c2)CCCCC4)cc1`, the survival was inactive: 75%. For `COC(=O)c1cc(S(=O)(=O)NCC2CCN(Cc3cc(C)ccc3C)CC2)c[nH]1` the value was inactive: 72%; for `COc1ccc(-c2cn3c(n2)sc2cc(C(=O)NCc4ccccc4OC)ccc23)cc1`, inactive: 81%; for `COc1ccccc1Nc1nn2c(=O)c3ccc(C(=O)NCc4cccs4)cc3nc2s1`, inactive: 83%. Regarding `Cc1ccc2c(=O)c(C(=O)c3ccc(F)cc3)cn(CC(=O)NCc3ccccc3)c2n1`, the survival is inactive: 84%.

With `COc1cccc(Cn2c(CNC(=O)C(C)C)nc3cccnc32)c1`, the survival is inactive: 80%. As for `COc1ccc(N2CCN(C(=O)c3ccc(C)c(NC(=O)c4nsc5ccccc45)c3)CC2)cc1`, the figure is inactive: 64%; as for `COc1ccc(OC)c(S(=O)(=O)NCCc2sc(-c3ccc(C)cc3)nc2C)c1`, inactive: 87%; as for `CCOC(=O)c1c(NC(=O)/C=C/c2ccccc2)sc2c1CCCC2`, inactive: 73%.

For the compound `COc1ccc(C(=O)Nc2ccc(-c3nc4ncccc4o3)cc2)cc1`, the survival was inactive: 76%. For the compound `CC(C)(C)OC(=O)N1CCC(c2c(C(=O)NCc3ccccn3)cnn2-c2ccccc2)CC1`, the survival was inactive: 73%.

`Cc1ccc(-c2nc3ccccc3[nH]2)cc1NC(=O)COc1cccc(C)c1C`: the survival was inactive: 73%.

In the case of `COc1cc(CNc2ccc3[nH]c(=O)[nH]c3c2)cc(Cl)c1OCc1ccccc1F`, the survival was inactive: 86%. For the compound `Cc1ccc(-c2nonc2NC(=O)c2ccco2)cc1C`, the survival is inactive: 79%. With `Cc1ccc(-c2nn(CC(=O)Nc3cccc(C(F)(F)F)c3)c(=O)c3ccccc23)cc1`, the survival was inactive: 67%. As for `Cc1ccc(CNC(=O)c2ccc3c(c2)N(Cc2cccc(C)c2)C(=O)CS3)cc1`, the survival was inactive: 66%.

Consider `Cc1oc(C)c2c(=O)cc(-c3ccc4c(c3)OCO4)cc(OC(=O)c3ccc(Cl)cc3)c12`, for which the survival is inactive: 112%. As for `CCC(Sc1nc2ccccc2c2nc(CCc3c(C)n[nH]c3C)nn12)C(=O)Nc1ccccc1F` (stereo not given), the figure is inactive: 91%; as for `COc1ccccc1Cn1c(CNS(=O)(=O)c2cccc([N+](=O)[O-])c2)nc2cccnc21`, inactive: 55%; as for `Cc1cccc(C)c1NC(=O)CSCc1cnn(-c2ccccc2)c1-n1cccc1`, inactive: 74%.

In the case of `COc1ccc(C)cc1NC(=O)CCn1nc(C)cc1C`, the survival is inactive: 121%.

With `CCN(CC)C(=O)C1=C(C)Nc2nc3ccccc3n2C1c1cccc(Cl)c1` (stereo not given), the survival was inactive: 77%. Turning to `CCOC(=O)c1c(C)n(C(=O)c2ccco2)c(=O)n1C(=O)c1ccco1`, the survival was inactive: 112%.

Turning to `COC(=O)c1ccc(NC(=O)CSc2n[nH]c(CC(C)C)n2)cc1`, the survival is inactive: 69%.

With `O=C(O)C1C2C=CC(C2)C1C(=O)NCCCN1CCOCC1` (stereo not given), the survival is inactive: 110%.

As to `CC1CCN(CC(C)OC(=O)c2ccc3c(c2)OCCO3)CC1` (stereo not given), the survival was inactive: 104%. Turning to `O=C(CN1CCCC1)Nc1nc(-c2ccc3c(c2)CCN3C(=O)C2CC2)cs1`, the survival was inactive: 116%. As for `COc1ccc(CNC(=O)c2cc3cccc(OC)c3oc2=O)cc1`, the figure is inactive: 90%.

Regarding `COc1cccc(CNC(=O)c2nn(C)c3c2CS(=O)(=O)c2ccccc2-3)c1`, the survival was inactive: 81%. In the case of `Nc1nc2c(c(=O)[nH]1)CCC2`, the survival is inactive: 99%.

In the case of `CCn1cc(C(=O)N2CCN(c3ccc(OC)cc3)CC2)c(=O)c2cc(S(=O)(=O)N(C)C3CCCCC3)ccc21`, the survival is inactive: 128%.
